Measured values as given in the supplement of paper PMC3334620.
Whole data set: some 33,000 sequences, median “E-score (-0.5 to 0.5)” near -0.021, cut for the highest 2% near 0.32. This is one part of the list.

These sequences were tested against T1, Zap1 (UniProt P47043) (assay: PBM E-score (8-mer binding enrichment) (E-score (-0.5 to 0.5)); higher = stronger / more preferred TF binding; most listed sequences are background and not binding sites). Conditions: protein concentration: 200 nM; construct: GST-full length.
T1 sequence: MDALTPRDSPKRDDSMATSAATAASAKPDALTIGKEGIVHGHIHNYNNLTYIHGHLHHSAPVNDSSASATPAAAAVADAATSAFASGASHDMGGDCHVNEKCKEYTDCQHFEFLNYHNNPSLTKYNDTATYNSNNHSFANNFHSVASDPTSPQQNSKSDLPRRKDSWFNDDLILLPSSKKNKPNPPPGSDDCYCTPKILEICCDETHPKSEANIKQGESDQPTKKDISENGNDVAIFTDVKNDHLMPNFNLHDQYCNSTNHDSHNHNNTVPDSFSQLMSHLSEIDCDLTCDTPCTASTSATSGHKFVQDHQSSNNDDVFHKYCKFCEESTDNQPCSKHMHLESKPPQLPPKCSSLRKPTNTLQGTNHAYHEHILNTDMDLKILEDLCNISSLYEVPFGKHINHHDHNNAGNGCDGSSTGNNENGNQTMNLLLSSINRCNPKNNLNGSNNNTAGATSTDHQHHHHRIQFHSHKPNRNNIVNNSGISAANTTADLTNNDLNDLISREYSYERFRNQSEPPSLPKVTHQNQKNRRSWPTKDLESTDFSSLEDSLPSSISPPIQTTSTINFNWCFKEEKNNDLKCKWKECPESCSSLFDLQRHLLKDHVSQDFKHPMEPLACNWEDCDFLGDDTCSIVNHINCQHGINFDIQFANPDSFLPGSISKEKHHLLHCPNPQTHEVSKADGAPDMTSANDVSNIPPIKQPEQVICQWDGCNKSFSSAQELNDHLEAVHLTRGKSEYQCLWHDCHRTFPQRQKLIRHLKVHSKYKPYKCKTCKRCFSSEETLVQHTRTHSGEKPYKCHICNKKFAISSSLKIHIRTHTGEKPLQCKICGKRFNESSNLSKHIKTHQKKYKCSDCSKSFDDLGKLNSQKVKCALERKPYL
Summary of the method: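 Masliner-normalised scans of fluorescent anti-GST signal were the basis for scoring. That signal came from GST-tagged yeast transcription factors applied at about 100-200 nM to double-stranded universal all-10-mer Agilent arrays on fresh or once-stripped slides. Each ungapped eight-base word, pooled with its reverse complement, received an E-score from the Universal PBM Analysis Suite.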

Sequence | PBM E-score
GAGTCAGC | -0.252
CCTAGGAC | -0.0226
CCCCTCAC | 0.00662
GCTTCTGA | 0.00394
GGAACTTA | 0.00413
AGACATGA | -0.274
AAGAGCGT | -0.0279
GCTACGCA | -0.186
ATTCACAC | -0.088
GGCCTCCC | -0.079
ACTCCCAT | -0.219
AGAATTCA | 0.0136
CTTCTGGA | 0.107
TGCTTCCA | -0.284
AGGGCCAG | -0.0924
ACTGCAGT | -0.0604
CGCTGTAA | 0.148
ACGAACAT | 0.0966
ACACATTG | 0.0809
TTATACAA | 0.275
ATTGACTG | -0.136
ATTTTCGG | 0.129
CCGGGACG | -0.205
CATCTCCA | -0.0871

Sequence | PBM E-score
ATAAGGAA | 0.0781
GGGATTAA | -0.0499
GACATGCC | -0.159
AGAAATCT | -0.0876
GTCATCTA | 0.0299
AGCCCTAC | -0.12
GTGTTGCA | -0.0574
CAATAGCG | -0.0495
CTATTAAC | 0.217
TGGGAGAA | -0.157
ATCAGCCG | -0.144
ACATCCGC | -0.0826
ACAGGAGA | -0.00479
ACAGGATG | 0.0755
CATCCGAC | 0.0183
ACTCCCAG | -0.0908
ACAGATGT | -0.266
GCGCGCGA | 0.017
ACTTGGAG | -0.226
AGTCGACT | 0.119
ACTATGGC | -0.0314
AGGTTTGC | 0.109
GGTGCGCA | 0.0404
AGTGTGGA | 0.00926

Sequence | PBM E-score
ATTCGACG | 0.0764
ATACCCAC | 0.224
TATTCAAA | 0.235
GACGAAAC | -0.104
ACATTCCC | -0.0945
CTCATCAG | 0.116
GCTTCACC | -0.263
CAGCGTGA | -0.023
AGGACCGA | -0.116
AGGATTTA | -0.0767
ATGTTTAG | 0.0793
TCTCCCAA | -0.00482
AGTGTCAT | -0.109
AAGATAAA | 0.176
ACGCGAGG | -0.0471
AAGCGGTA | 0.131
CCTCTATC | 0.0148
ATCTTGTG | -0.0123
AAGGAAGT | -0.0403
CATAACCG | 0.395
CCCCGGCC | 0.0756
ATCCTCAG | 0.0333
CGCCTCGA | 0.0277
AACAAAGC | 0.265

Sequence | PBM E-score
CCCCTACA | -0.0402
ACGCAAAA | -0.024
AGTTTCAT | 0.173
GCAGCATA | -0.183
TACATTCA | 0.00564
CCACCGCA | -0.0132
TACAGACA | 0.064
TGACGACA | 0.179
CCCGCGCA | 0.012
CCTTCCGA | -0.0228
GGTTTTAC | 0.108
AACGGTAG | 0.104
GCACTGGC | -0.308
ATGCTTAC | -0.056
CTTCGAAG | -0.0416
GATCGTGC | 0.0153
CACCAGAC | 0.0613
GAAAAGCA | -0.0572
CCGCCGCC | -0.0211
GCAAGCAA | -0.0664
AATTGGAG | -0.209
CAAATTTA | 0.133
